# Where “and” joins values, the source holds several entries; their conditions need not be identical. Equal entries are not always repeated. Hit rate of the full screen: of about 340,000 compounds, about 12,000 (3.5%) were called active. The shares of active, inactive and inconclusive entries below differ from those in the screen. Calls follow the shape of the dose curve; as a rule, active = well fitted inhibition curve with a large enough effect; inconclusive = small, poorly fitted or top-dose-only effect, or another doubt; inactive = no such curve, though single readings can be large or run the other way. Potencies of inconclusive entries are doubtful fits and often do not repeat.
# Assay: qHTS Assay for Inhibitors of Hepatitis C Virus (HCV)
# Conditions: Huh7.5.1 HCVcc-Cre (HCVcc is cell-culture hepatitis C virus) infection, luciferase reporter, 44 h; series mostly up to 41.8 µM
# In short: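 Compounds are dispensed onto cells plated 4 h earlier at 1,000 per well, with HCVcc-Cre virus (about 0.5 moi) added next. Following 44 h of culture, luminescent signal is measured for 15 sec after 15 min with substrate at room temperature.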
# Potency is read from the fitted curve at half-maximal effect; tags tell the direction and shape of the fitted curve.
row,SMILES,Potency
1,CC(C)(C)c1ccc(C2(C)NC(=O)N(CC(=O)Nc3ccc4c(c3)OCO4)C2=O)cc1 (stereo unspecified),"inconclusive: 31.6 µM [inhibitor, single point]"
2,CCc1nc(SCC(=O)N2CCCc3ccccc32)c2oc3ccccc3c2n1,active: 11.2 µM
3,CCCCc1cc(O)c(CCCC)c(O)c1,"inconclusive: 10 µM [inhibitor, partial curve]"
4,COc1cccc(N=C2SC(CC(=O)Nc3ccccc3)C(=O)N2Cc2ccccn2)c1 (stereo unspecified),inactive
5,COc1ccc(N(CC(=O)NCc2ccc(F)cc2)C(=O)c2snc(C(N)=O)c2N)cc1,"inconclusive: 5.62 µM [inhibitor, single point]"
6,Cc1nc([N+](=O)[O-])c(C(=O)OCc2cccc(Br)c2)n1C,inactive
7,Cc1ccc(C(=O)NCc2ccncc2)cc1S(=O)(=O)Nc1cccc(C)c1C,"inconclusive: 22.4 µM [inhibitor, single point]"
8,COc1ccccc1NC(=O)CN(c1ccc([N+](=O)[O-])cc1)S(=O)(=O)c1ccccc1,inactive
9,CCOC(=O)c1nn(-c2ccccc2C)c2nc(CC(C)C)c(C#N)c(=O)n12,"inconclusive: 5.01 µM [inhibitor, single point]"
10,NC(=O)c1ccsc1NC(=O)CCS(=O)(=O)c1ccccc1,"inconclusive: 31.6 µM [inhibitor, single point]"
11,CCOCCCNC1=C(Cl)C(=O)c2ccccc2C1=O,inactive
12,COc1ccc(CCn2c(=S)[nH]c3cc(C(=O)NCc4ccco4)ccc3c2=O)cc1OC,"inconclusive: 3.55 µM [inhibitor, partial curve]"
13,O=C(c1cccs1)C1CN2CCC1CC2 (stereo unspecified),inactive
14,CC1=NN(c2ccc(C)c(C)c2)C(=O)/C1=C\C=C\c1ccc([N+](=O)[O-])o1,active: 11.2 µM
15,CNC(=O)CCc1[nH]c2ccccc2c1Sc1ccccc1,inactive
16,O=C(CNCc1cccs1)Nc1ccc(N2CCCCCC2)cc1,inactive
17,c1ccc2ncccc2c1,inactive
18,CCCCCC1=C(C(=O)OC)C(C(=O)OCC)N(S(=O)(=O)C(F)(F)F)c2ccccc21 (stereo unspecified),active: 11.2 µM
19,COc1cc2c(cc1OC)CN(C(=O)c1oc3ccccc3c1C)CC2,"inconclusive: 31.6 µM [inhibitor, single point]"
20,CCOC(=O)c1c(C2CC2)csc1NC(=O)CSCc1c(C)noc1C,"inconclusive: 14.1 µM [inhibitor, single point]"
21,CN(CC(=O)Nc1ccccc1C(F)(F)F)C(=O)c1cccc(-n2cccc2)c1,inactive
22,COc1ccc(OC)c(NC(=O)c2nc(S(=O)(=O)Cc3ccccc3)ncc2Cl)c1,"inconclusive: 22.4 µM [inhibitor, single point]"
23,CCc1ccc(/C=C/c2c([N+](=O)[O-])c(=O)n(C)c(=O)n2C)cc1,"inconclusive: 25.1 µM [inhibitor, single point]"
24,NC(=S)Nc1cccc2cc3ccccc3cc12,"inconclusive: 31.6 µM [inhibitor, single point]"

row,SMILES,Potency
1,CN(CCC1CCOCC1)C(=O)CC1C(=O)NCCN1Cc1ccoc1 (stereo unspecified),inactive
2,Cc1nnnn1/C(=C\c1ccccc1)C(=O)OCC(=O)Nc1cccc(S(=O)(=O)N(C)C)c1,active: 10 µM
3,C[C@@H](C(=O)NCCc1c[nH]c2ccccc12)[C@H]1C[C@]1(C)[C@H](NC(=O)OCc1ccccc1)c1ccccc1,"inconclusive: 28.2 µM [inhibitor, single point]"
4,COc1cc2c(cc1OC)C(=O)N1[C@H]3c4cc(C)ccc4OC[C@@H]3[C@H](c3ccccc3)[C@]1(C)C(=O)N2,"inconclusive: 10 µM [inhibitor, partial curve]"
5,CCOc1ccc(CCNC(=O)C2CCC(=O)N2CCc2ccccc2)cc1OCC (stereo unspecified),"inconclusive: 14.1 µM [inhibitor, single point]"
6,CCCCc1ccc(C2C3=C(CC(C)(C)CC3=O)NC3=C2C(=O)c2ccccc23)cc1 (stereo unspecified),active: 12.6 µM
7,COc1ccccc1/C=C1\SC(=S)N(CCC(=O)Nc2cccc(O)c2)C1=O,inactive
8,O=C(NC1CCCCC1)c1ccc(COc2ccccc2)o1,"inconclusive: 31.6 µM [inhibitor, single point]"
9,CCOC(=O)C1=C(C)N(CCCC(=O)O)C(=O)NC1C(CC)CC (stereo unspecified),"inconclusive: 5.62 µM [inhibitor, single point]"
10,CCOCCCn1c(=S)[nH]c2cc(C(=O)N3CCN(c4ccccc4)CC3)ccc2c1=O,"inconclusive: 12.6 µM [inhibitor, partial curve]"
11,C=CCOc1ccc(/C=C(\C#N)C(=O)Nc2ccccn2)cc1,inactive
12,CCNC(=S)NNC(=O)c1cccn(Cc2ccc(Cl)cc2)c1=O,inactive
13,COC(=O)c1cnc2c(C(F)(F)F)cccc2c1OC,"inconclusive: 31.6 µM [inhibitor, single point]"
14,CC(C)c1cc(C(=O)OCC(=O)N2CCN(C(=O)c3ccco3)CC2)c(O)c(C(C)C)c1,"inconclusive: 14.1 µM [inhibitor, single point]"
15,COc1ccccc1CN(C)C(=O)c1ccc2c(c1)NC(=O)CS2,"inconclusive: 31.6 µM [inhibitor, single point]"
16,CCOC(=O)c1c(C)[nH]c(C(=O)CN2CC(C)OC(C)C2)c1C (stereo unspecified),"inconclusive: 0.355 µM [inhibitor, full curve, poor fit]"
17,CCOc1ccc2nc(SCC(=O)Nc3ncccn3)[nH]c2c1,"inconclusive: 22.4 µM [inhibitor, single point]"
18,Cc1cc(NCc2ccccc2)nc(-c2ccccc2O)n1,"inconclusive: 10 µM [inhibitor, partial curve]"
19,Cc1cccc(-n2ncc3c2CCCC3NC(=O)C2=CC(=O)CC(C)(C)O2)c1C (stereo unspecified),active: 7.08 µM
20,Cc1cc(C)c(C(=O)c2ccc(C(=O)N(C(C)C)C(C)C)cc2)c(C)c1,"inconclusive: 22.4 µM [inhibitor, single point]"
21,O=c1[nH]c(CN2CCN(S(=O)(=O)/C=C/c3ccccc3)CC2)nc2ccccc12,inactive
22,CC(C)c1ccc(COc2ccc(C(=O)N3CCOCC3)cc2)cc1,"inconclusive: 14.1 µM [inhibitor, single point]"
23,O=C(OCC(=O)N1CCCc2ccccc21)c1cccc(S(=O)(=O)N2CCc3ccccc32)c1,inactive
24,Cc1oc(-c2ccc(Cl)cc2)nc1CS(=O)CC(=O)NCc1ccco1 (stereo unspecified),inactive

row,SMILES,Potency
1,O=C(CSc1ccc(-c2ccco2)nn1)NC1CCCCC1,inactive
2,COc1ccccc1N1CCN(CCN(C(=O)C2CCCCC2)c2ccccn2)CC1,"inconclusive: 31.6 µM [inhibitor, single point] and inconclusive: 35.5 µM [inhibitor, single point]"
3,CCc1ccc(NC(=O)c2sc3nc4n(c(=O)c3c2C)CCC4)cc1,"inconclusive: 22.4 µM [inhibitor, single point]"
4,COc1cc2c(cc1OC)C(C)N(C(=O)c1cc3n(n1)C(C(F)(F)F)CC(c1ccco1)N3)CC2 (stereo unspecified),"inconclusive: 8.91 µM [inhibitor, partial curve]"
5,Cc1ccc(S(=O)(=O)N(C)CC(=O)OCC(=O)NC(=O)Nc2ccc3c(c2)OCCO3)cc1,inactive
6,O=[N+]([O-])c1ccc(-c2nnc(-c3ccccc3)c(N3CCOCC3)n2)cc1,"inconclusive: 10 µM [inhibitor, partial curve]"
7,O=C(O)CNC(=O)CCCn1nnc2ccccc2c1=O,inactive
8,COc1ccccc1/C=C/C=N/NC(=O)c1cc(-c2ccco2)[nH]n1,"inconclusive: 31.6 µM [inhibitor, single point]"
9,CCN(C(=O)CN1C(=O)S/C(=C\c2ccc(F)cc2)C1=O)C1CCS(=O)(=O)C1 (stereo unspecified),inactive
10,CC1CCN(CCCNC(=O)C2CCC(CNS(=O)(=O)c3ccccc3)CC2)CC1 (stereo unspecified),inactive
11,Cn1c(N)c(C(=O)Nc2cccc(Cl)c2)c(=O)n(C)c1=O,"inconclusive: 3.16 µM [inhibitor, single point]"
12,COc1cc2c3c(c1)c(N=NC(N)=S)c(O)n3C(C)(C)C=C2C,"inconclusive: 2.51 µM [inhibitor, partial curve]"
13,Oc1ccc(C2C(c3ccccc3)=NN=C(c3ccc(Cl)cc3)N2O)c(O)c1 (stereo unspecified),"inconclusive: 2.82 µM [inhibitor, full curve]"
14,Cc1cc(C)n(-c2ccc(C(=O)OC(C)C)cc2)n1,inactive
15,CCOC(=O)c1c(C)[nH]c(C)c1C(=O)COC(=O)c1cc(OC)cc(OC)c1,"inconclusive: 8.91 µM [inhibitor, partial curve, poor fit]"
16,CC(C)(C)c1ccc(S(=O)(=O)NCCc2ccncc2)cc1,"inconclusive: 31.6 µM [inhibitor, single point]"
17,CN(C)CCCNC(=S)Nc1ccc(Oc2ccccc2)cc1,"inconclusive: 10 µM [inhibitor, partial curve]"
18,COc1ccc(N2CCOCC2)c(NC(=O)c2ccco2)c1,"inconclusive: 3.98 µM [inhibitor, full curve, poor fit]"
19,Cc1ccc(OCCCCn2ccnc2)c(Cl)c1,"inconclusive: 6.31 µM [inhibitor, partial curve]"
20,COc1ccccc1CNc1ccc(N2CCOCC2)c(C(=O)O)c1,inactive
21,Cc1cccc2c1cnn2C(=O)Nc1ccccc1Cl,"inconclusive: 5.62 µM [inhibitor, single point]"
22,Oc1ccccc1Cl,inactive
23,C[C@@]12C(=O)N(Cc3ccc(Cl)cc3)CC(=O)N1[C@H]1c3ccccc3OC[C@@H]1[C@@H]2c1ccccc1,"inconclusive: 31.6 µM [inhibitor, single point]"
